Assay results reported in article PMC6499814.
These are yes or no findings as the source states them, for the method shown. In cells and extracts the contact can be indirect. Some entries that bind do so weakly or less than the wild type. For part of these data: Where a sequence is shown, tags or fusion partners need not be part of it. One block for each substance: values may come before it.

Chains of the proteins cited; added tags and fusions are not shown. Residues count along the entry.
UniProt P56962: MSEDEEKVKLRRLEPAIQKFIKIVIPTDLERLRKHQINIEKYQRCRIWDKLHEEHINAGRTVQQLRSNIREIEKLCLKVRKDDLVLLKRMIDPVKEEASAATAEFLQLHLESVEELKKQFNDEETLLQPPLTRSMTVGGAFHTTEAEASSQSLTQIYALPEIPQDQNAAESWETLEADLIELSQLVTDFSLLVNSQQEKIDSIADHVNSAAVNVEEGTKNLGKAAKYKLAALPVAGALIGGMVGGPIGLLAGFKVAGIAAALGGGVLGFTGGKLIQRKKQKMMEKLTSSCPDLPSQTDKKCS
UniProt O60313, residues 88-960: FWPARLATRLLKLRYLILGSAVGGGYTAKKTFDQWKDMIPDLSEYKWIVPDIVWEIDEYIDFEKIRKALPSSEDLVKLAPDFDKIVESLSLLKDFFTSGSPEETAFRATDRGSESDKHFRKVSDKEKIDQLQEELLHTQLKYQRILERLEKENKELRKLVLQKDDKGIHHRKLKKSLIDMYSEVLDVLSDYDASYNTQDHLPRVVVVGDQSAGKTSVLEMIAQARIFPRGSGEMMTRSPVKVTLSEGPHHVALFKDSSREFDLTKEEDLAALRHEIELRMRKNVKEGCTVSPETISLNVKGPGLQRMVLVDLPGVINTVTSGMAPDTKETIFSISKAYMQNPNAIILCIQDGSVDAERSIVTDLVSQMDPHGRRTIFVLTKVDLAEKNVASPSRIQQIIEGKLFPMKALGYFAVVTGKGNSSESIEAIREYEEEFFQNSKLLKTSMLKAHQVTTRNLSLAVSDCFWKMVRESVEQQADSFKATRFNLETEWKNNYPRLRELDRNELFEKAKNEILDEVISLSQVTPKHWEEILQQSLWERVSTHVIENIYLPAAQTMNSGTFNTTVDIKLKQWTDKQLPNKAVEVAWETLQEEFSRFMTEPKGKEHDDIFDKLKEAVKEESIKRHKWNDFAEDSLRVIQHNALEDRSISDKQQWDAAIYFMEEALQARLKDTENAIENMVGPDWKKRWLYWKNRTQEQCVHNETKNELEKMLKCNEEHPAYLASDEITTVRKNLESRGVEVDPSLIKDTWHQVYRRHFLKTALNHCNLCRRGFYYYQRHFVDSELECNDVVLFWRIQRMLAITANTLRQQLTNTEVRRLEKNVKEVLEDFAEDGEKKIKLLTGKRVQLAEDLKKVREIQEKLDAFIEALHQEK
UniProt Q9Y3D6: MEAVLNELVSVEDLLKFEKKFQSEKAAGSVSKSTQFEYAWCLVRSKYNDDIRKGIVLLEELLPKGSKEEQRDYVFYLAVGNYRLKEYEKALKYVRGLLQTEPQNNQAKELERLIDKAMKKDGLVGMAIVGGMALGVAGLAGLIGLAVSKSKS
UniProt Q6ZNE5: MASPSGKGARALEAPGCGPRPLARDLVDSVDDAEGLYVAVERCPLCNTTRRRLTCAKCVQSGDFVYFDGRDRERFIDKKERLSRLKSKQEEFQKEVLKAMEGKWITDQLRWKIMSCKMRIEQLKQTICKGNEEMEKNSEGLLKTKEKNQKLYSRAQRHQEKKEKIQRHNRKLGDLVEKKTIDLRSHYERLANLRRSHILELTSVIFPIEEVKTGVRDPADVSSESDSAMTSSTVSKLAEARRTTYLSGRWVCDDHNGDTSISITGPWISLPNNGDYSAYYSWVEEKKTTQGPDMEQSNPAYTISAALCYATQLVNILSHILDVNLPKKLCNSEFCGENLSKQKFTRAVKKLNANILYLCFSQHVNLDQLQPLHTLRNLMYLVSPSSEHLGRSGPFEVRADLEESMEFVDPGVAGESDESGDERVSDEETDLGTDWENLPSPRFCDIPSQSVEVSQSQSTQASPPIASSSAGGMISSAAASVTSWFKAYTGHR

Legend:
[1] = molecular target: Flag-tagged STX17 (syntaxin 17) (UniProt P56962); assay: co-IP; Wild-type or Fis1 KO HeLa cells transfected with Flag-STX17 (or its mutants) and the indicated plasmids for 24 h; IP with anti-Flag beads and immunoblotting; also in cells cultured in glucose or galactose medium for 18 h
[2] = molecular target: T1, Flag-tagged Mff (mitochondrial fission factor) (UniProt Q9GZY8); assay: co-IP; HEK293T cells co-transfected with Myc-tagged STX17 (or truncations) and Flag-tagged plasmids for 24 h; IP with anti-Flag, blots with anti-Myc and anti-Flag; NP-40 lysis buffer, FLAG M2 beads, 4 °C, 3 h
T1 sequence: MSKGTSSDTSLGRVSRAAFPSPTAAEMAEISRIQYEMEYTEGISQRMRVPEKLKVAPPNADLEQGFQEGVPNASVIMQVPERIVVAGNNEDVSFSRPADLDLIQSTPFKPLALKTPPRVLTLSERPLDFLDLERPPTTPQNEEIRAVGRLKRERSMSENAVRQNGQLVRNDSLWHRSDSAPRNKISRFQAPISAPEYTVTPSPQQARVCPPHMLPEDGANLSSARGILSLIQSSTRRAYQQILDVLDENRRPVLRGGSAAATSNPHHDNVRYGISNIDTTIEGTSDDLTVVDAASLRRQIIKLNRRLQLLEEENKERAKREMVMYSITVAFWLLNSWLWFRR

Flag-tagged OPA1 = Flag-tagged OPA1 (UniProt O60313); assay: as above
Flag-tagged Mfn1 = molecular target: T2, Flag-tagged Mfn1 (UniProt Q8IWA4); assay: as above
T2 sequence: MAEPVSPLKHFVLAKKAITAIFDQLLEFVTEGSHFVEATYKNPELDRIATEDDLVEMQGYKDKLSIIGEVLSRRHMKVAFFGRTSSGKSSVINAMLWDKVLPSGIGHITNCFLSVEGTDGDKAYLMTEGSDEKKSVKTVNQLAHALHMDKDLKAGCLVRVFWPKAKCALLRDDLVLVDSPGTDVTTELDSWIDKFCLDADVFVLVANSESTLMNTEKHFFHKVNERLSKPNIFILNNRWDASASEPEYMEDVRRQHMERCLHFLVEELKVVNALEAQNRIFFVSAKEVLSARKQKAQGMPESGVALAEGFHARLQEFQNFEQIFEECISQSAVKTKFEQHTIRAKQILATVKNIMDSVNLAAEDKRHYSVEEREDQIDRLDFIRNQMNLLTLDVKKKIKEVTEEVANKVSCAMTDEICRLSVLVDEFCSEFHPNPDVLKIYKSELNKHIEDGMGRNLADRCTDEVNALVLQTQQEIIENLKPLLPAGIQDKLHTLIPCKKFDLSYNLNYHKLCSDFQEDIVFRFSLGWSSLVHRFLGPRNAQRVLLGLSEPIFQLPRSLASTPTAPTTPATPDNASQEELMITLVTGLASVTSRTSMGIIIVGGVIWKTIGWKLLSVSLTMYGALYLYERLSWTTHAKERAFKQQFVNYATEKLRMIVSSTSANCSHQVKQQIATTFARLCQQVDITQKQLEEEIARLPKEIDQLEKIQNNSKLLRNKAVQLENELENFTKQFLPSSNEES

[3] = molecular target: Flag-tagged Fis1 (mitochondrial fission 1 protein) (UniProt Q9Y3D6); assay: as above
[4] = molecular target: Flag-tagged Fis1 (mitochondrial fission 1 protein) (UniProt Q9Y3D6); assay: co-IP; HeLa cells transfected with Flag vector or Flag-Fis1; anti-Flag immunoprecipitates blotted for endogenous STX17 and Flag; NP-40 lysis buffer (50 mM Tris-HCl pH 7.4, 150 mM NaCl), FLAG M2 beads, 4 °C, 3 h

- binding [1]: binds
Substance: ATG14 (from UniProt Q6ZNE5 1-492)

- binding [2]: no binding
- binding (Flag-tagged OPA1): no binding
- binding (Flag-tagged Mfn1): no binding
- binding [3]: binds
Substance: Myc-tagged STX17 (syntaxin 17) (from UniProt P56962 1-302)

- binding [4]: binds
Substance: Syntaxin 17 (STX17), endogenous (from UniProt P56962 1-302)
